Results reported in PMC6212790.
This is one part of the list. At the low end of the ranking the order means little.

These sequences were tested against T1, GST-Rok (full length) (UniProt O34857) (assay: protein binding microarray). Details: Rok is a gene silencer of Bacillus subtilis; high values mean tight binding; most listed sequences are background and not binding sites; double strand, one strand shown.
T1 sequence: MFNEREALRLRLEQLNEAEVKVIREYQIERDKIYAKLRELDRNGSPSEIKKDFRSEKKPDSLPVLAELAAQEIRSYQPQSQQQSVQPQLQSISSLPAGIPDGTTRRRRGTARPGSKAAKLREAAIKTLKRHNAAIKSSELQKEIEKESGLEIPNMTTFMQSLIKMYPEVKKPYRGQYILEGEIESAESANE
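Further: rank score from −0.5 (least bound) to 0.5 (best bound).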

| Sequence | binding signal [E-score] |
| --- | --- |
| TATTAAAA | 0.204 |
| CACCCCAG | -0.385 |
| GTCTAACA | -0.0578 |
| AGTTTCAC | 0.181 |
| CATGACCG | -0.155 |
| GACAGTGA | -0.0714 |
| CACCGTAG | -0.239 |
| CGTGGCCC | -0.267 |
| ACGTGATA | 0.264 |
| ATATTGTG | 0.172 |
| CGGAGAAC | -0.0682 |
| AGACTCAA | -0.113 |
| CGTTCGAA | -0.0525 |
| GGTCAAAA | -0.0657 |
| GCTTCTAA | 0.0454 |
| CAGGGCGC | -0.394 |
| CGCAATGC | -0.0423 |
| AGTAACGA | 0.142 |
| CGCGGGAA | -0.124 |
| GCAATACC | 0.148 |
| CGCACTGC | -0.0457 |
| GAGATCCC | -0.23 |
| CCAAATAA | -0.0124 |
| TAGGCGGA | -0.179 |
| CCGGTTGA | -0.211 |

| Sequence | binding signal [E-score] |
| --- | --- |
| AGCCACTA | -0.0386 |
| CCCGGGAC | -0.355 |
| ATTCGGGA | 0.0877 |
| CCGCATCA | -0.161 |
| GCACTCGA | -0.0135 |
| CGCCTGCC | -0.248 |
| TCGTTGAA | 0.0968 |
| AAACAAGG | 0.0361 |
| AGCTGAAC | -0.165 |
| CGTCGCCA | -0.201 |
| AAGATCTT | 0.109 |
| CCCTCACC | -0.28 |
| AATTTTGC | 0.234 |
| ATATAAGC | 0.186 |
| CCCATACG | -0.0759 |
| ATTTAGCG | 0.215 |
| AGCGTACA | 0.0297 |
| GGTAATAA | 0.313 |
| AAAAAGTC | -0.0671 |
| AGCGATAC | 0.0328 |
| GCTAGCAA | 0.229 |
| GCGCCGAA | -0.267 |
| TTAACAAA | 0.159 |
| GCGCGCCC | -0.415 |
| CGACGCGA | -0.322 |

| Sequence | binding signal [E-score] |
| --- | --- |
| AAGAAGTC | -0.069 |
| TAGGTATA | 0.329 |
| ACCGGAAA | -0.0576 |
| GCACCACA | -0.0102 |
| AAAAAAAA | 0.0401 |
| CTGCTGGA | -0.212 |
| GCTATCAC | 0.244 |
| ATGTGGGC | -0.354 |
| GAGAGGTA | 0.0254 |
| CCTGGCTA | -0.178 |
| ACCTCTTA | 0.122 |
| AATACGCA | 0.208 |
| AGGTCATC | -0.0948 |
| ACGTTGAC | -0.0959 |
| CAAATAAC | 0.172 |
| AAGGACTA | 0.0751 |
| CCGTTAAC | -0.0454 |
| ACCGGTGA | -0.144 |
| ATACCAAC | 0.256 |
| GTTTTACA | 0.203 |
| AGGGTCAA | -0.134 |
| ATCATGCA | -0.000789 |
| GTAAAAAC | 0.289 |
| ACCATCGT | -0.0168 |
| TCACGCAA | -0.104 |

| Sequence | binding signal [E-score] |
| --- | --- |
| CACGCGAG | 0.0325 |
| CAGCTCTA | -0.0716 |
| TGGCTGAA | -0.0265 |
| CACTTCTA | 0.193 |
| CGAAGGCC | -0.277 |
| ATCTTAGC | 0.144 |
| ACCCTCGA | 0.0287 |
| CATTCACA | -0.0251 |
| AACTCTGA | 0.0339 |
| AGCGAATG | -0.0752 |
| CGGCGGCC | -0.286 |
| ACTGGCTA | -0.0799 |
| CGCAGCCC | -0.35 |
| CGAGTTGC | 0.203 |
| CTGACTCC | -0.234 |
| AGCTAACT | 0.0661 |
| TAAATAAA | 0.231 |
| CCTGTACG | -0.115 |
| ACTAACAC | 0.00622 |
| ACAGAGCA | -0.0211 |
| ATACGCCC | -0.195 |
| AAAATCCA | 0.25 |
| GCCAACTA | 0.118 |
| ACTTATTC | 0.106 |
| CCGTGCGA | -0.202 |

| Sequence | binding signal [E-score] |
| --- | --- |
| CTGTTCTC | -0.105 |
| ATATGTAC | 0.345 |
| CAGGTACA | 0.079 |
| CATTTCGG | 0.0631 |
| GCTCGCCC | -0.38 |
| AGCCCTTG | -0.338 |
| AACATCGC | 0.00195 |
| GGATTGGA | -0.136 |
| TAACTAGA | 0.224 |
| AAACCTAA | 0.124 |
| CCCGGAGC | -0.215 |
| ACGGGTCG | -0.242 |
| CACTAGTG | 0.0643 |
| CAGATTGG | -0.0567 |
| AGTCCCGG | -0.212 |
| CGGCGACG | -0.126 |
| CTATTATA | 0.366 |
| CACCGGGG | -0.393 |
| AATGTCGC | 0.000504 |
| GCACACCC | -0.41 |
| ATCATGCG | -0.0974 |
| GCTTTTAA | -0.132 |
| ACACGTTC | 0.0945 |
| AACCTGGG | -0.315 |
| GTATTCGA | 0.115 |

| Sequence | binding signal [E-score] |
| --- | --- |
| AACCCGTG | -0.268 |
| TCATGTCA | 0.0783 |
| CCTGCCTA | -0.00201 |
| CGACTGGC | -0.246 |
| CACGCGCG | -0.0875 |
| AATGTAAA | 0.299 |
| CAGCTTAA | -0.0947 |
| ACAGCTGG | -0.106 |
| GACAGGAA | -0.211 |
| CAGGACAC | -0.155 |
| AAGTAACA | 0.207 |
| GAGTTTTA | 0.203 |
| CCCCCATC | -0.401 |
| CATTTAAC | 0.045 |
| GCTAGGTA | 0.284 |
| ATCAGTCG | 0.0426 |
| AATGGGCA | -0.155 |
| ACGCGCAG | -0.244 |
| CGGTCGTC | -0.108 |
| CGTATAAG | 0.102 |
| GGGCAACA | -0.254 |
| ATTGTTTC | 0.228 |
| CCCTACAA | -0.0139 |
| CTTGTTGA | -0.187 |
| GCACTTCA | -0.15 |

| Sequence | binding signal [E-score] |
| --- | --- |
| CATACGAC | 0.0062 |
| ACCGGCGG | -0.218 |
| CTCGTCGC | -0.158 |
| CGGTGAAA | -0.0143 |
| CGGCTTAA | -0.0868 |
| CAACGTTC | -0.0911 |
| CTTTCGGA | -0.0359 |
| CCCTTAAA | -0.0853 |
| CTGTGAAC | -0.0504 |
| CGCGTCTC | -0.118 |
| AATCTCCC | -0.02 |
| CCTTGTCC | -0.322 |
| CATAGGAG | -0.131 |
| ATTGACGA | -0.0185 |
| CACGATAC | -0.0758 |
| ACGCCTCT | -0.267 |
| AAAGCTGG | 0.0115 |
| CACCTTCA | -0.186 |
| CGCCCGGA | -0.292 |
| AAAATTTC | 0.0626 |
| ATACAAGA | 0.11 |
| ACGAAGCA | -0.132 |
